Results reported in PubChem BioAssay AID588795 (National Center for Advancing Translational Sciences (NCATS), 2011).
Among all 390,000 compounds or so, about 1,400 (0.36%) were called active. Inconclusive means that the source gave no clear call. Such entries were picked first, then a sample of the others. The call rests on the fitted dose curve; in most records, active means well fitted inhibition curve with a large enough effect; inconclusive means small, poorly fitted or top-dose-only effect; inactive means no such curve, though single readings can be large or run the other way. Potencies beside an inconclusive call are fits to weak or partial responses and may not hold up.

What follows are compounds tested against Flap endonuclease 1 (Homo sapiens) (UniProt P39748) (assay: qHTS Assay for the Inhibitors of Human Flap endonuclease 1 (FEN1).). Details: Recombinant FEN1 flap cleavage, fluorescence, 15 min; series mostly up to 114 µM.
Sequence of UniProt P39748 (P39748 whole entry, looked up): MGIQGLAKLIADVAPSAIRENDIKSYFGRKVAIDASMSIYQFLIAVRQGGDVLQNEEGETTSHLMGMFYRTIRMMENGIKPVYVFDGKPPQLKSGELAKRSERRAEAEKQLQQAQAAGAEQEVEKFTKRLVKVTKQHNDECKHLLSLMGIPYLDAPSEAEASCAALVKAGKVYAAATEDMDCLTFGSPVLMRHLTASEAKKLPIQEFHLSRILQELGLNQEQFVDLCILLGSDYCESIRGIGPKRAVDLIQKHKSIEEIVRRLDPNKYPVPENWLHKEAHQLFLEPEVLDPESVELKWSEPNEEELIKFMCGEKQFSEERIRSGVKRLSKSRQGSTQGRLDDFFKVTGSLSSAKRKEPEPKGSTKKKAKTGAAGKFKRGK
Summary of the method: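 Reaction started by adding substrate (50 nM final) to 10 nM enzyme after 15 min room-temperature compound preincubation. Reads at 0 and 15 min, with data normalized and fitted to a four-parameter Hill equation.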
Further: nearly all actives have a fitted effect of over 65% in size.
Potency means the concentration at half of the fitted maximal effect; tags describe the fitted curve by direction and shape.

Structure (SMILES)	Potency
O=C(NCc1ccc(Cl)cc1)C1CCN(S(=O)(=O)c2cccc3nonc23)CC1	inconclusive: 100 µM [inhibitor, partial curve, poor fit]
Cc1ccc(-c2cc(C(=O)Nc3nccs3)c3ccccc3n2)c(C)c1	inconclusive: 56.2 µM [inhibitor, partial curve, poor fit]
O=C(NC1CCCCC1)C(c1cccs1)N(C(=O)c1ccco1)c1ccc2c(c1)OCCO2 (centres undefined)	inconclusive: 89.1 µM [inhibitor, partial curve, poor fit]
Oc1ccc(/C=N/N=C(c2ccccc2)c2ccccc2)c(O)c1O	inconclusive: 50.1 µM [inhibitor, partial curve]
Cc1ccc(-n2nc3c(=O)n(C(C)C(=O)NCc4ccc(OC(C)C)cc4)nc(C)c3c2C)cc1 (centres undefined)	inactive
Cc1cc(NC(=O)CCc2nc3cccnc3n2-c2ccccc2)ccc1Br	inactive
Cc1cc(OCC(=O)Nc2ccc(N3CCN(C(=O)c4ccco4)CC3)cc2)cc(C)c1Cl	inconclusive: 89.1 µM [inhibitor, single point]
COC(=O)c1ccc2c(c1)NC(=O)C1CCCN21 (centres undefined)	inconclusive: 20 µM [inhibitor, single point]
O=C(/C=C/c1ccco1)NC(=S)Nc1ccc(C(=O)O)cc1	active: 39.8 µM
CCCOCc1ccc(O)c2ncccc12	inconclusive: 79.4 µM [inhibitor, partial curve, poor fit]
CN1CCN(c2ccc(NC(=O)c3ccc([N+](=O)[O-])o3)cc2Cl)CC1	inconclusive: 22.4 µM [inhibitor, single point]
COc1cc(OC)c(/C=C/c2ccc3ccccc3[n+]2C)c(OC)c1	active: 25.1 µM
NC(=O)CC[C@H](N)C(=O)O	inconclusive: 4.74 µM [inhibitor, single point]
COc1cc(/C=C2\C(=O)N(CCC#N)N=C2C)ccc1OCC(=O)Nc1ccccc1	inconclusive: 50.1 µM [inhibitor, partial curve]
CCC[N+](C)(C)c1ccc(/C=C/c2ccnc3ccccc23)cc1	active: 31.6 µM
Cc1cc(OCCCCOc2ccc(C#N)cc2)ccc1[N+](=O)[O-]	inconclusive: 89.1 µM [inhibitor, partial curve, poor fit]
CSc1ccc(CN(C)C(=O)c2cccc(S(=O)(=O)NCc3ccccc3)c2)cc1	inconclusive: 89.1 µM [inhibitor, partial curve, poor fit]
O=C(c1ccco1)N1CCN(C(=O)c2ccc(-c3ccc([N+](=O)[O-])cc3)o2)CC1	active: 79.4 µM
COC(=O)CCC(=O)OC1(C)C(=O)C2=CN(Cc3ccc4c(c3)OCO4)C(c3ccc(OC)cc3)=CC2=C(Br)C1=O (centres undefined)	inactive
Cc1cccc(NC(=S)NCC(C)CSc2ccc(Cl)cc2)c1 (centres undefined)	inconclusive: 79.4 µM [inhibitor, partial curve, poor fit]

Structure (SMILES)	Potency
C=C(C)C(=O)Oc1ccc(N=Nc2ccc(C)cc2)ccc1=O	inconclusive: 89.1 µM [inhibitor, single point]
COc1ccccc1NC(=S)NC(=O)/C=C/c1ccco1	inactive
CC(C)=CCC/C(C)=C/CNC(=O)C[C@H]1C[C@H](C(=O)N2CCCCC2)[C@@]2(C)c3[nH]c4cc(-c5ccco5)ccc4c3CCN2C1=O	inconclusive: 79.4 µM [inhibitor, partial curve, poor fit]
CCc1ccc(C(=O)c2cn(CC(=O)Nc3ccc4c(c3)OCO4)c3ccc(CC)cc3c2=O)cc1	inactive
O=S(=O)(NCC(c1ccco1)N1CCc2ccccc2C1)c1ccc(F)cc1 (centres undefined)	inconclusive: 89.1 µM [inhibitor, partial curve, poor fit]
O=C(CN1c2cccc3cccc(c23)S1(=O)=O)NC1CCCCC1	inconclusive: 100 µM [inhibitor, partial curve, poor fit]
Cc1ccc(N/C(=C\C(=O)c2ccccc2)C(=O)O)cc1	inconclusive: 44.7 µM [inhibitor, partial curve]
C#CCOCCOCCOCCNc1nc(N2CCN(C(=O)CCCCCCCCCCNC(=O)Cn3cc(CCCCCN)nn3)CC2)nc(N2CCN(C(=O)CCCCCCCCCCNC(=O)[C@H]([C@@H](C)CC)n3cc(CCCCCN)nn3)CC2)n1	inconclusive: 89.1 µM [inhibitor, single point]
CCC(C(=O)OCC(=O)Nc1cc(C)ccc1OC)c1ccccc1 (centres undefined)	inconclusive: 15.8 µM [inhibitor, partial curve, poor fit]
O=C(NCCCO)c1cc2c([nH]c3ccccc32)c(-c2ccccc2)n1	inconclusive: 89.1 µM [inhibitor, single point]
O=C(NCC1CCCO1)c1cccc2c1C(=O)c1ccc(N3CCC(Cc4ccccc4)CC3)cc1S2(=O)=O (centres undefined)	inactive
COc1ccc(Br)cc1C1C(C(=O)Nc2ccc(C)cc2C)=C(C)Nc2ncnn21 (centres undefined)	inactive
COc1cc(NC(=O)c2[nH]c(C)c(C(C)=O)c2C)cc(OC)c1OC	inconclusive: 89.1 µM [inhibitor, partial curve, poor fit]
CC1CCc2c(sc(NC(=O)Cn3nc(C(F)(F)F)c4c3CCCCC4)c2C#N)C1 (centres undefined)	inactive
c1ccc2c(c1)CCN(C1=Nc3cccc4cccc1c34)C2	inconclusive: 50.1 µM [inhibitor, partial curve]
COC(=O)c1sc(N)c(C(=O)OC)c1COC(=O)[C@@H](NS(=O)(=O)c1cccc(Cl)c1)C(C)C	inconclusive: 56.2 µM [inhibitor, partial curve, poor fit]
O=C1NC(=Nc2cccc(O)c2)S/C1=C\c1cccc([N+](=O)[O-])c1	inactive
CC[C@]12c3[nH]c4cc(-c5ccco5)ccc4c3CCN1C(=O)[C@@H](CC(=O)NC/C=C(\C)CCC=C(C)C)C[C@@H]2C(=O)N1CCN(C(=O)C2CC2)CC1	inconclusive: 89.1 µM [inhibitor, partial curve, poor fit]
O=C(O)c1ccccc1-c1ccc(/C=c2\sc3nc4cc(Br)cnc4n3c2=O)o1	active: 10 µM
